# Source: the supplement of paper PMC8728848
# The list shows a part of the results.
# B1: FimA-N3 (Actinomyces oris) (protein)
# chain: MHHHHHHSSGVDLGTENLYFQSNAGLQGAQFQLYKAKNAYANTCSNEKEGAPIAINGQTTLTTDAQGAIDIKGLFISDSIDGADRDNQVNAMERCYVLVETKAPAGYVLPAGNGAATPVKVKAGEETTDN
# Legend:
# Experiment in all cases: glycan array binding signal (z-score within array); higher = stronger binding
# Settings in all cases: glycan notation: IUPAC condensed, linker removed
# Gal(b1-4)Glc = target: Gal(b1-4)Glc
# How it was run: (§1)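 Arrays were curated from the Consortium for Functional Glycomics database, 3228 in total, and kept only where the protein sequence was available. Binding is expressed as a within-array Z-score. This score was averaged across arrays of the same protein sequence at different concentrations or buffers and across linkers, and negative values can be read as non-binding.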
# Gal(b1-4)Glc6S = target: Gal(b1-4)Glc6S
# How it was run: as §1
# Gal(b1-4)GlcNAc = target: Gal(b1-4)GlcNAc
# How it was run: as §1
# [1] = target: Gal(b1-4)GlcNAc(a1-6)Gal(b1-4)GlcNAc
# How it was run: as §1
# Gal(b1-4)GlcNAc(b1-2)Man = target: Gal(b1-4)GlcNAc(b1-2)Man
# How it was run: as §1
# [2] = target: Gal(b1-4)GlcNAc(b1-2)Man(a1-3)Man(b1-4)GlcNAc(b1-4)GlcNAc
# How it was run: as §1
# [3] = target: Gal(b1-4)GlcNAc(b1-2)Man(a1-3)[Gal(b1-4)GlcNAc(b1-2)Man(a1-6)]Man(b1-4)GlcNAc(b1-4)GlcNAc
# How it was run: as §1
# [4] = target: Gal(b1-4)GlcNAc(b1-2)Man(a1-3)[Gal(b1-4)GlcNAc(b1-2)Man(a1-6)]Man(b1-4)GlcNAc(b1-4)[Fuc(a1-6)]GlcNAc
# How it was run: as §1
# [5] = target: Gal(b1-4)GlcNAc(b1-2)Man(a1-3)[Gal(b1-4)GlcNAc(b1-2)Man(a1-6)][Gal(b1-4)GlcNAc(b1-4)]Man(b1-4)GlcNAc(b1-4)[Fuc(a1-6)]GlcNAc
# How it was run: as §1
# [6] = target: Gal(b1-4)GlcNAc(b1-2)Man(a1-3)[Gal(b1-4)GlcNAc(b1-2)Man(a1-6)][GlcNAc(b1-4)]Man(b1-4)GlcNAc(b1-4)[Fuc(a1-6)]GlcNAc
# How it was run: as §1
# [7] = target: Gal(b1-4)GlcNAc(b1-2)Man(a1-3)[GlcNAc(b1-2)Man(a1-6)]Man(b1-4)GlcNAc(b1-4)GlcNAc
# How it was run: as §1
# [8] = target: Gal(b1-4)GlcNAc(b1-2)Man(a1-3)[GlcNAc(b1-4)][Gal(b1-4)GlcNAc(b1-2)Man(a1-6)]Man(b1-4)GlcNAc(b1-4)GlcNAc
# How it was run: as §1
# [9] = target: Gal(b1-4)GlcNAc(b1-2)Man(a1-3)[Man(a1-6)]Man(b1-4)GlcNAc(b1-4)GlcNAc
# How it was run: as §1
# [10] = target: Gal(b1-4)GlcNAc(b1-2)Man(a1-6)Man(b1-4)GlcNAc(b1-4)GlcNAc
# How it was run: as §1
# [11] = target: Gal(b1-4)GlcNAc(b1-2)Man(a1-6)[GlcNAc(b1-2)Man(a1-3)]Man(b1-4)GlcNAc(b1-4)GlcNAc
# How it was run: as §1
# [12] = target: Gal(b1-4)GlcNAc(b1-2)Man(a1-6)[Man(a1-3)]Man(b1-4)GlcNAc(b1-4)GlcNAc
# How it was run: as §1
# [13] = target: Gal(b1-4)GlcNAc(b1-2)[Gal(b1-4)GlcNAc(b1-4)]Man(a1-3)[Gal(b1-4)GlcNAc(b1-2)Man(a1-6)]Man(b1-4)GlcNAc(b1-4)GlcNAc
# How it was run: as §1
# [14] = target: Gal(b1-4)GlcNAc(b1-2)[Gal(b1-4)GlcNAc(b1-4)]Man(a1-3)[Gal(b1-4)GlcNAc(b1-2)[Gal(b1-4)GlcNAc(b1-6)]Man(a1-6)]Man(b1-4)GlcNAc(b1-4)GlcNAc
# How it was run: as §1
# [15] = target: Gal(b1-4)GlcNAc(b1-2)[Gal(b1-4)GlcNAc(b1-4)]Man(a1-3)[GlcNAc(b1-4)][Gal(b1-4)GlcNAc(b1-2)Man(a1-6)]Man(b1-4)GlcNAc(b1-4)GlcNAc
# How it was run: as §1
# [16] = target: Gal(b1-4)GlcNAc(b1-2)[Gal(b1-4)GlcNAc(b1-4)]Man(a1-3)[GlcNAc(b1-4)][Gal(b1-4)GlcNAc(b1-2)[Gal(b1-4)GlcNAc(b1-6)]Man(a1-6)]Man(b1-4)GlcNAc(b1-4)GlcNAc
# How it was run: as §1
# [17] = target: Gal(b1-4)GlcNAc(b1-2)[Gal(b1-4)GlcNAc(b1-6)]Man(a1-6)[Gal(b1-4)GlcNAc(b1-2)Man(a1-3)]Man(b1-4)GlcNAc(b1-4)GlcNAc
# How it was run: as §1
# [18] = target: Gal(b1-4)GlcNAc(b1-2)[Gal(b1-4)GlcNAc(b1-6)]Man(a1-6)[Gal(b1-4)GlcNAc(b1-2)Man(a1-3)]Man(b1-4)GlcNAc(b1-4)[Fuc(a1-6)]GlcNAc
# How it was run: as §1
binder,measurement,setting,value
B1,glycan array binding signal (z-score),Gal(b1-4)Glc,-0.147
same,glycan array binding signal (z-score),Gal(b1-4)Glc6S,-0.058
same,glycan array binding signal (z-score),Gal(b1-4)GlcNAc,-0.412
same,glycan array binding signal (z-score),[1],0.279
same,glycan array binding signal (z-score),Gal(b1-4)GlcNAc(b1-2)Man,0.072
same,glycan array binding signal (z-score),[2],0.291
same,glycan array binding signal (z-score),[3],-0.47
same,glycan array binding signal (z-score),[4],0.119
same,glycan array binding signal (z-score),[5],-0.318
same,glycan array binding signal (z-score),[6],-0.521
same,glycan array binding signal (z-score),[7],0.194
same,glycan array binding signal (z-score),[8],-0.378
same,glycan array binding signal (z-score),[9],-0.153
same,glycan array binding signal (z-score),[10],-0.27
same,glycan array binding signal (z-score),[11],-0.327
same,glycan array binding signal (z-score),[12],-0.087
same,glycan array binding signal (z-score),[13],-0.413
same,glycan array binding signal (z-score),[14],-0.618
same,glycan array binding signal (z-score),[15],-0.499
same,glycan array binding signal (z-score),[16],-0.59
same,glycan array binding signal (z-score),[17],-0.416
same,glycan array binding signal (z-score),[18],-0.499
